This is an account of results in the supplement of paper PMC4604168 (melanoma cell lines).

Some test systems named below: MZ2-MEL; MeWo; RPMI7951; RVH-421; SkMel28; SkMel2; SkMel30; SkMel5; UACC257; UACC62.
Holding throughout (assay): cell count relative to DMSO control; melanoma cells; higher = more viable cells
Common to all, as to details: library dose: low library concentration; 72 h

SMILES strings stand for the structures. Some of the results follow. Repeats are few or missing, and single values can be far off.
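Also: cell number obtained by counting DAPI-stained nuclei in high-throughput microscope images with image analysis software, screen run in 1,536-well plates.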

As to `Cn1c(=O)n(-c2ccc(C(C)(C)C#N)cc2)c2c3cc(-c4cnc5ccccc5c4)ccc3ncc21` + COC(=O)c1sccc1S(=O)(=O)Nc1ccc(Nc2ccccc2)cc1OC [GSK0660] (first compound 0.004 µM, partner dose 1 µM), the cell count in the assay with MZ2-MEL was 93.2%; in the assay with MeWo, 76.9%; with RPMI7951, 98.4%; in the assay with RVH-421, 94.1%; in the assay on SkMel28, 85.6%; with SkMel2, 92.5%. Besides, the cell count with SkMel30 is 81.8%; in the assay with SkMel5, 99%; in the assay on UACC257 it was 115%; in the assay on UACC62, 88.7%.

For `COc1ccc(C2=N[C@@H](c3ccc(Cl)cc3)[C@@H](c3ccc(Cl)cc3)N2C(=O)N2CCNC(=O)C2)c(OC(C)C)c1` [Nutlin-3] + O=c1cc(-c2cccc3c2Sc2ccccc2S3)oc(N2CCOCC2)c1 [KU55933] (first compound 0.1 µM, partner dose 1 µM), the cell count with MZ2-MEL stood at 99.5%; in the assay on MeWo, 91.5%; with RPMI7951 it was 113%; in the assay with RVH-421 it was 87.4%; with SkMel28, 96.3%; in the assay with SkMel2 it was 96%. The cell count in the assay with SkMel30 was determined as 103%; in the assay with SkMel5 it was 95.5%; with UACC257 it was 89.9%; with UACC62 it was 87.9%.

On to `Cn1c(=O)n(-c2ccc(C(C)(C)C#N)cc2)c2c3cc(-c4cnc5ccccc5c4)ccc3ncc21` + COc1ccc(COc2ccc(Cc3cnc(N)nc3N)cc2OC)cc1 [GW2580] (first compound 0.004 µM, partner dose 1 µM), for which the cell count in the assay with MZ2-MEL came to 101%; with MeWo, 95.5%; in the assay with RPMI7951, 92%; with RVH-421 it was 85.7%; in the assay with SkMel28, 82.2%; with SkMel2 it was 98.7%. Moreover, the cell count with SkMel30 worked out at 88.2%; with SkMel5 it was 102%; with UACC257, 74.3%; with UACC62, 94.2%.

Turning to `CC(C)C[C@H](NC(=O)[C@H](Cc1ccccc1)NC(=O)c1cnccn1)B(O)O` [Bortezomib] + CN(NC(=O)CC(=O)NN(C)C(=S)c1ccccc1)C(=S)c1ccccc1 [STA4783] (first compound 0.001 µM, partner dose 0.006 µM), the cell count is 75.2% with MZ2-MEL; 76% in the assay with MeWo; 85.9% in the assay with RPMI7951; 64.6% in the assay on RVH-421; 97.5% in the assay on SkMel28; 89.4% with SkMel2. For the same compound, the cell count in the assay with SkMel30 is 109%; in the assay with SkMel5, 104%; in the assay with UACC257 it was 64%; with UACC62 it was 85.1%.

For `Cn1c(=O)n(-c2ccc(C(C)(C)C#N)cc2)c2c3cc(-c4cnc5ccccc5c4)ccc3ncc21` + Cn1cc(/C=C2\C(=O)Nc3cccnc32)c2ccccc21 [GW441756] (first compound 0.004 µM, partner dose 0.4 µM), the cell count was 100% in the assay on MZ2-MEL; 80.7% with MeWo; 94.4% with RPMI7951; 94.1% in the assay on RVH-421; 79.5% in the assay on SkMel28; 100% in the assay on SkMel2. Besides, the cell count in the assay with SkMel30 amounted to 89.6%; in the assay on SkMel5 it was 91.9%; with UACC257 it was 80%; in the assay on UACC62, 87.5%.

Consider `Cn1c(=O)n(-c2ccc(C(C)(C)C#N)cc2)c2c3cc(-c4cnc5ccccc5c4)ccc3ncc21` + Cc1cc([N+](=O)[O-])ccc1NS(=O)(=O)c1cc(Cl)ccc1Cl [FH535] (first compound 0.004 µM, partner dose 1 µM), for which the cell count with MZ2-MEL was 88.1%; with MeWo it was 78.1%; in the assay on RPMI7951, 96.3%; with RVH-421 it was 80.3%; with SkMel28, 60%; in the assay with SkMel2, 81.9%. Further, the cell count in the assay with SkMel30 was 81.7%; with SkMel5, 83.6%; in the assay with UACC257, 88.5%; in the assay with UACC62, 81.9%.

`COc1ccc(C2=N[C@@H](c3ccc(Cl)cc3)[C@@H](c3ccc(Cl)cc3)N2C(=O)N2CCNC(=O)C2)c(OC(C)C)c1` [Nutlin-3] + Cc1ccc(NC(=O)c2cccc(N(C)C)c2)cc1NC(=O)c1ccc(O)cc1 [ZM336372] (first compound 0.1 µM, partner dose 2 µM): the cell count in the assay with MZ2-MEL is 82.3%; in the assay on MeWo, 102%; with RPMI7951, 92.9%; in the assay with RVH-421 it was 91.3%; in the assay with SkMel28, 94.9%; with SkMel2, 95.9%. Besides, the cell count with SkMel30 was determined as 107%; with SkMel5 it was 95.9%; in the assay on UACC257, 80.8%; in the assay on UACC62 it was 81.7%.

On to `CC(C)C[C@H](NC(=O)[C@H](Cc1ccccc1)NC(=O)c1cnccn1)B(O)O` [Bortezomib] + COc1ccc(COc2ccc(Cc3cnc(N)nc3N)cc2OC)cc1 [GW2580] (first compound 0.001 µM, partner dose 1 µM), for which the cell count with MZ2-MEL amounted to 88.4%; in the assay on MeWo, 89.7%; with RPMI7951, 82.3%; with RVH-421 it was 109%; in the assay on SkMel28 it was 81.9%; with SkMel2, 96.5%. Further, the cell count in the assay on SkMel30 is 83.2%; with SkMel5, 84.4%; in the assay with UACC257 it was 77%; with UACC62, 73.6%.

With `Cc1cc(Nc2cc(N3CCN(C)CC3)nc(/C=C/c3ccccc3)n2)n[nH]1` + O=C(Nc1ccccc1)c1cc([N+](=O)[O-])ccc1Cl [GW9662] (first compound 0.04 µM, partner dose 2 µM), the cell count is 91.8% in the assay on MZ2-MEL; 89.3% in the assay with MeWo; 90.4% with RPMI7951; 123% in the assay with RVH-421; 96.3% in the assay with SkMel28; 96.8% with SkMel2. The cell count with SkMel30 worked out at 90.4%; in the assay with SkMel5, 97.2%; with UACC257, 123%; with UACC62, 72%.

Consider `Cc1cn(-c2cc(NC(=O)c3ccc(C)c(Nc4nccc(-c5cccnc5)n4)c3)cc(C(F)(F)F)c2)cn1` [nilotinib] + CN(NC(=O)CC(=O)NN(C)C(=S)c1ccccc1)C(=S)c1ccccc1 [STA4783] (first compound 0.2 µM, partner dose 0.006 µM), for which the cell count with MZ2-MEL is 104%; in the assay on MeWo it was 98.5%; with RPMI7951 it was 104%; in the assay with RVH-421, 85%; in the assay on SkMel28 it was 116%; with SkMel2 it was 82%. Besides, the cell count worked out at 97.2% with SkMel30, 107% in the assay on SkMel5, 79.1% with UACC257 and 86.6% in the assay on UACC62.

As for `COc1ccc(C2=N[C@@H](c3ccc(Cl)cc3)[C@@H](c3ccc(Cl)cc3)N2C(=O)N2CCNC(=O)C2)c(OC(C)C)c1` [Nutlin-3] + N#Cc1c(O)c2c(-c3ccc(-c4ccccc4O)cc3)csc2[nH]c1=O [A769662] (first compound 0.1 µM, partner dose 2 µM), the cell count in the assay with MZ2-MEL was determined as 98.4%; with MeWo it was 107%; in the assay with RPMI7951 it was 99.7%; with RVH-421, 85.8%; with SkMel28, 91.8%; with SkMel2, 90.7%. For the same compound, the cell count with SkMel30 was 96.7%; in the assay with SkMel5, 103%; in the assay with UACC257, 92.4%; with UACC62, 95.4%.
